Assay results reported in paper PMC4336329 (PLoS ONE, 2015).
In all, about 310,000 compounds went through this assay and about 14,000 (4.5%) showed an effect of 50% or more. Effects have a minus sign here. Some of the results follow.

What follows are molecules tested against human ether-à-go-go-related gene (hERG) potassium channel (human, UniProt Q12809) (assay: primary screen, population patch clamp on CHO cells stably expressing hERG).
Description: Briefly, Chinese hamster ovary (CHO) cells stably expressing the hERG channel were dislodged from tissue culture flasks and dispensed into PPC plates. […] During the recording, background leak currents were estimated by a 100 ms step to -80 mV from an initial holding potential of -70 mV and subtracted from the subsequent current measurement. The campaign was conducted in two phases using slight differences in recording protocol. In the first phase, the initial voltage pulse used a 100 ms step to -30 mV from a holding potential of -70 mV, a 2 s conditioning step to +25 mV, and a 2 s test step to -30 mV. During the second phase of the screen, the potential during the conditioning step was raised to +45 mV. In both phases of the campaign, a secondary voltage pulse was applied using the same parameters as the second phase initial pulse. The initial and secondary pulses were applied in the absence of compound, and upon application of 1 μM and 10 μM test concentrations. […]
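Further: peak tail current of the secondary pulse compared with the same well before compound.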

human ether-à-go-go-related gene (hERG) potassium channel, sequence (Q12809 whole entry, looked up): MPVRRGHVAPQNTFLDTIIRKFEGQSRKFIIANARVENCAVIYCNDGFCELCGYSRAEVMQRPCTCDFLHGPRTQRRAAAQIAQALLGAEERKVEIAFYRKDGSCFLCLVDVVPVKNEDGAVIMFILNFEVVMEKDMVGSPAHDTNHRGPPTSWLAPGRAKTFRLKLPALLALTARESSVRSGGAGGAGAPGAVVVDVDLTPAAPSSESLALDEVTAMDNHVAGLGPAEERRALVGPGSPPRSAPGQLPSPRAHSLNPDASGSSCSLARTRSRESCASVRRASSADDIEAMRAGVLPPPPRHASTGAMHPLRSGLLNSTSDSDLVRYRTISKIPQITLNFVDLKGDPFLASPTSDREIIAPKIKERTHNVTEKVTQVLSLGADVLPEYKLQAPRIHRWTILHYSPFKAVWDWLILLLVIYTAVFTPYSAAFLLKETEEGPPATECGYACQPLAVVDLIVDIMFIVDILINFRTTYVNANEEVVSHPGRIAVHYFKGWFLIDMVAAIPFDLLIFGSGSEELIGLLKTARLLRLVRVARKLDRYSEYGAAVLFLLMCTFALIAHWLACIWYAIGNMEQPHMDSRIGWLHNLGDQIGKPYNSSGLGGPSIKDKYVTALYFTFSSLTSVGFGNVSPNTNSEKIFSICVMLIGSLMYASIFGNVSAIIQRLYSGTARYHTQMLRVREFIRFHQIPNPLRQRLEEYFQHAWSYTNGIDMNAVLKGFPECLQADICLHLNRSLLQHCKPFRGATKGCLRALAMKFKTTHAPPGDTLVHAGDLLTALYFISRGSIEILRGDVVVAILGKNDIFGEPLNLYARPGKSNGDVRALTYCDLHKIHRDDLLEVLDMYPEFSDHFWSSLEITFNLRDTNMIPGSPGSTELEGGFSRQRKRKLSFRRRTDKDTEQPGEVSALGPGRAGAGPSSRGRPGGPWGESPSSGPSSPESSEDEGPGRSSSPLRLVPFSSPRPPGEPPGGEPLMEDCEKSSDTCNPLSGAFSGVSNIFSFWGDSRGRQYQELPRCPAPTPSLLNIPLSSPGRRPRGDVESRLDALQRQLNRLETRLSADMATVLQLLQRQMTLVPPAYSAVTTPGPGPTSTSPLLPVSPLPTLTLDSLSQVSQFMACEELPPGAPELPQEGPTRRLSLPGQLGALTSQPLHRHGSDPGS

SMILES	hERG current change (%, negative = inhibition) at 10uM [%]
CCOC(=O)N1CCN(Cc2nc(N)nc(Nc3ccc(OC)cc3)n2)CC1	-62.4
CC(=O)Nc1ccc(NC(=O)Cn2nc(C(=O)Nc3ccc(C)cc3)ccc2=O)cc1	27.3
O=S(=O)(Nc1nccs1)c1cc(Cl)ccc1Cl	1.38
CCOC(=O)C1(Cc2ccccc2C(F)(F)F)CCN(C(C)CSC)CC1 (centres unmarked)	-48.2
Cc1ccc(O)c(NC(=O)C2CC(c3cccc(Br)c3)=NO2)c1 (centres unmarked)	-15
CCOC(=O)c1cc(CC)sc1NC(=O)COC(=O)C1CCC1	8.46
Cc1ccc(S(=O)(=O)N2CCCN(S(=O)(=O)C3CCS(=O)(=O)C3)CC2)cc1 (centres unmarked)	-31
CCOC(=O)C(=O)N1CCC(Cc2ccccc2)CC1	-1.57
Cc1ccc(SCn2nnc3ccccc3c2=O)c(C)c1	-33.8
Nc1nnc(SCC(=O)NCc2ccc3c(c2)OCO3)s1	10.1
CN(C)CCN(C)Cc1ccccc1Sc1cccc2ccccc12.Cl	-65.3
CC(C)(CNS(=O)(=O)c1ccc(Cl)cc1)N1CCCCC1	-5.62
CCOC(=O)c1c(C2CC2)csc1NC(=O)CSCc1c(C)noc1C	5.31
CC(=O)N(Cc1cccnc1)Cc1cc2ccccc2[nH]c1=O	3.63
CCOc1ccc(NS(=O)(=O)c2ccc(C(=O)N3CC(C)OC(C)C3)cc2)cc1 (centres unmarked)	6.77
CC#CCN1c2ccccc2[C@]23C[C@@H](C(=O)OC)N(C(=O)OCC)C2=NC(C(=O)OC)=C(C(=O)OC)[C@H]13	3.42
O=C(NCC1OCCCN1S(=O)(=O)c1cc(F)ccc1F)C(=O)NC1CCCCC1 (centres unmarked)	-3.8
O=C(CCN1CCN(c2ccccn2)CC1)Nc1ccc(F)cc1	-42.5
COc1ccc2nc(SCC(=O)Nc3cc(C)on3)[nH]c2c1	-6.41
COc1cc(C(=O)N2CCC3(CC2)NCCc2[nH]cnc23)cc(OC)c1OC	22.9
CN(Cc1ccccc1)C(=O)COC(=O)c1ccc2c(c1)OCO2	-5.37
O=S(=O)(Cc1ccccc1)Cc1cnc(Cl)s1	0.628

SMILES	hERG current change (%, negative = inhibition) at 10uM [%]
CCCCCCCC/C=C\CCCCCCCC(=O)NCCO	11.7
COCCN(C(=O)c1ccccc1OC1CCN(S(C)(=O)=O)CC1)C(C)C	17.8
Clc1ccc(-c2cc3ccccc3nc2N2CCCC2)cc1	3.51
COc1ccc(C(=O)N2CCN(S(=O)(=O)c3ccc(F)cc3)CC2)cc1OC	10.9
CC(=O)NC(CCS(C)(=O)=O)C(=O)Nc1cccc(Cl)c1Cl (centres unmarked)	22.6
O=C(Nc1ccc(S(=O)(=O)N2CCOCC2)cc1)c1ccc2ncsc2c1	-8.88
COc1ccc(-c2cc(-c3n[nH]c(=S)n3-c3cccc4ccccc34)[nH]n2)cc1	22
CCNC(=O)COC(=O)C1CCC(=O)N(c2ccc(OC)cc2)C1c1ccc(OC)cc1 (centres unmarked)	-32.2
CCOC(=O)N1CCN(S(=O)(=O)c2ccc(C)cc2)C1	9.88
Cc1ccc(OCc2nnc(SC(C)C(=O)O)n2Cc2ccccc2)cc1 (centres unmarked)	11.4
Cc1ccc(CNC(=O)CSCc2ccccc2)cc1	25.9
Br.C=CCn1c(C)csc1=Nc1ccccc1C	4.02
COc1ccccc1-n1c(O)c(C=NCCCn2ccnc2)c(=O)[nH]c1=O	9.22
COc1cc(C(=O)OCc2ccc(C)cc2)cc(NC(=O)c2cccs2)c1OC	1.71
CCN1CCN(c2ccc(S(=O)(=O)N3CCCCC3)cc2NC(=O)c2sccc2C)CC1	-71.4
COc1ccc(C2=NS(=O)(=O)N(C)C(C(=O)Nc3ccc(C(C)=O)cc3)=C2)cc1OC	12.8
CCCN1CCC(NC(=O)Nc2ccc(F)cc2F)CC1	4.33
O=C(O)c1nn(CC(=O)N2CCC(Cc3ccccc3)CC2)c(=O)c2ccccc12	-8.78
COc1cc(/C=C2/N=C(C3CCCCC3)OC2=O)cc(OC)c1OC	-17.5
COc1ccc(/C=C/C(=O)Nc2cccc(S(=O)(=O)NC3=NCCCCC3)c2)c(OC)c1	-6.07
O=c1[nH]c(O)c(C=Nc2cccc(F)c2)c(=O)[nH]1	18.1
Cc1ccc(N2C(=O)c3ccccc3C2C(=O)c2ccc(O)cc2O)cc1 (centres unmarked)	-10.5
